From paper PMC9596381 (2022)

Columns and labels:
Assay in all cases: SPR
[1] = target: mouse Unc5A ectodomain, residues 1-359 (mUnc5A^ecto) (mouse, UniProt Q8K1S4 26-359, biotin on the Avi-tag)
[2] = target: rat Unc5D ectodomain (rUnc5D^ecto) (rat, UniProt F1LW30 31-382, biotin on the Avi-tag where immobilised)
[3] = target: Unc5B ectodomain used in SPR (Unc5B^ecto) ( (human or mouse cDNA cloned), UniProt Q8K1S3 27-377, biotin on the Avi-tag)
Sequence of UniProt Q8K1S3 (Q8K1S3 other isoform, or with tags, fused parts or gaps): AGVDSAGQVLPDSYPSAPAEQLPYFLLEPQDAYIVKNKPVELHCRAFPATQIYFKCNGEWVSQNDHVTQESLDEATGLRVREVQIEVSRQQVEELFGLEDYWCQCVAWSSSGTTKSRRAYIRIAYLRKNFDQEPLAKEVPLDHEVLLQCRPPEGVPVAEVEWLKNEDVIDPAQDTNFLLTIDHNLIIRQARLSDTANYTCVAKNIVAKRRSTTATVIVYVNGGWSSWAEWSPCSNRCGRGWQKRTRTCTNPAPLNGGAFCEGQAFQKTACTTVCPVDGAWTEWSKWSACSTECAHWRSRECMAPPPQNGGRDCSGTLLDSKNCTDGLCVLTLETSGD

Sequence of UniProt Q8K1S4 (Q8K1S4 26-359): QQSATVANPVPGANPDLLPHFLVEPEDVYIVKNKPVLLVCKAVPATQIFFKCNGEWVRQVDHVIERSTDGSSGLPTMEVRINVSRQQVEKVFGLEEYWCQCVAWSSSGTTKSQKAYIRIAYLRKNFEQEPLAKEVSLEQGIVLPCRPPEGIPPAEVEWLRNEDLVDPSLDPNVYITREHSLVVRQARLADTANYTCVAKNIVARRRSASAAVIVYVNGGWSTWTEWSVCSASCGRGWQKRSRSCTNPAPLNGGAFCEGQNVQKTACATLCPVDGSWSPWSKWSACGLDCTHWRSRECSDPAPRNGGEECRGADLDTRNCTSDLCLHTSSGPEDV
Sequence of UniProt F1LW30 (F1LW30 31-382): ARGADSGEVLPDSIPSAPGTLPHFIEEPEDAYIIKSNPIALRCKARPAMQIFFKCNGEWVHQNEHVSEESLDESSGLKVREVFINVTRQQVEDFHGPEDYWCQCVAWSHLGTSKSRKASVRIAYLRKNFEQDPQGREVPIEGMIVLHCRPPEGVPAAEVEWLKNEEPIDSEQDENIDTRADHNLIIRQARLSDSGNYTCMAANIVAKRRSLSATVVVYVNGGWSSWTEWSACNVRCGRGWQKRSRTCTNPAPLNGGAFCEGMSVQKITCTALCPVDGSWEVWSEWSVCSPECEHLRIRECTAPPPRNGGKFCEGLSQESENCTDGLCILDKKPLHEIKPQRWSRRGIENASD

B1: human glypican-3 core domain, […] (hGPC3^core) (domain or fragment)
chain: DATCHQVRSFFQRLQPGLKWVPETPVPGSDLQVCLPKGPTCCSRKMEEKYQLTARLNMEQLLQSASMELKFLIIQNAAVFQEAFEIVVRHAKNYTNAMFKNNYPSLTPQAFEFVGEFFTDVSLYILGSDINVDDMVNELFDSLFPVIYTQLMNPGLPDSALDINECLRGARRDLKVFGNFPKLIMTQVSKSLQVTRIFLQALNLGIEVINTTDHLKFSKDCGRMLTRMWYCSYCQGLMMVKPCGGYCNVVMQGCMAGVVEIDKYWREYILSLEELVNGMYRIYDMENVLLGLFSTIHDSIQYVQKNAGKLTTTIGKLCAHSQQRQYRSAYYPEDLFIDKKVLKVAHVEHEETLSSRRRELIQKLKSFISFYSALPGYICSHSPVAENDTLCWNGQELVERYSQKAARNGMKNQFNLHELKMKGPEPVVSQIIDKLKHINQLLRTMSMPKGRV
modifications: N-linked glycans at N124 and N241
Kd [1]: 886 nM
Kd [2]: 366 nM
Kd [3]: 369 nM
